From PubChem BioAssay AID1508642 (National Center for Advancing Translational Sciences (NCATS), 2021)
Hit rate of the full screen: of about 43,000 compounds, about 200 (0.47%) were called active. Inconclusive results (about 12%) are left out. Calls follow the shape of the dose curve; as a rule, active = well fitted cell-killing curve with a large enough effect; inconclusive = small, poorly fitted or top-dose-only effect, or effect the other way; inactive = flat fitted curve, though single readings scatter. Some of the results follow.

Experiment: Cell viability qHTS assay in S16 Pmp22-F2sN cells; also: nearly all actives have a fitted effect of over 65% in size
Conditions: S16 Pmp22-F2sN Schwann cells (luciferase reporters placed in the Pmp22 gene) viability, CellTiter-Glo, 24 h; series mostly up to 57.5 µM; activity change, negative = cytotoxicity: at the top concentration
Procedure, shortened: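 CellTiter-Glo counter-screen, qHTS, 1536-well. Cells: S16(c9) Pmp22-F2sN, 500-1,000/well in DMEM + 10% FBS. Cpd 23 nL pin transfer, 24 h, 37C/5% CO2. Read: luminescence, CCD imager.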
% is scaled to controls: 0 for no effect and ±100 for the full control effect.

Structure (SMILES) | activity change, negative = cytotoxicity
CCOC(=O)c1c(-c2ccccc2)oc2ccc(NS(=O)(=O)c3ccc(C)cc3)cc12 | inactive: -16.8%
CCN1C(=O)c2ccccc2Sc2ccc(NC(=O)Nc3cc(C)cc(C)c3)cc21 | inactive: -0.183%
COc1ccccc1Cn1c(C2CC(=O)N(c3ccccc3OC)C2)nc2ccccc21 (stereo unspecified) | inactive: -2.47%
Cc1ccnc(NC(c2cccc(O)c2)c2ccc3ccc(C)nc3c2O)c1 (stereo unspecified) | inactive: -2.48%
Cc1ccc(CNC(=O)c2cc3sc(Cl)cc3n2C)cc1 | inactive: 19.2%
O=C(Nc1cc(F)ccc1F)C1CCN(C(=O)c2cnn(-c3ccccc3)c2-n2cccc2)CC1 | inactive: -11.7%
Cc1ccc(NC(=O)CSc2nncn2C)c(C)c1 | inactive: 5.93%
COc1ccc(NC(=O)CSC2=Nc3ccccc3C3=NC(CCC(=O)NC4CCCCC4)C(=O)N23)cc1Cl (stereo unspecified) | inactive: -11.7%
COc1ccc(-c2noc(-c3nnn(-c4ccc(C)cc4C)c3C)n2)cc1 | inactive: -5.13%
COc1ccccc1NC(=O)CSCc1cc(=O)c2cccc(Cl)c2[nH]1 | inactive: 17.9%
COc1ccc(OC)c(C2CC(=O)Nc3c2c(=O)n(C)c2ncnn32)c1 (stereo unspecified) | inactive: 1.32%
COc1ccc(Cl)c2sc(NC(=O)c3ccc(S(=O)(=O)N4CCCC4)cc3)nc12 | inactive: 6.54%
Cc1ccc(C)c(NC(=O)Cn2nnc(C(=O)NCCc3ccccc3)c2N)c1 | inactive: 3.21%
CCOC(=O)c1ccc(NC(=O)C(CC)Sc2nnc3c4ccccc4n(C)c3n2)cc1 (stereo unspecified) | inactive: 4.67%
CCC1=Nc2cc(C(=O)NCc3ccccc3Cl)ccc2Sc2ccc(C)cc21 | inactive: -13.9%
Cc1cc(C)c(NC(=O)Cn2c(=O)n(Cc3ccc4c(c3)OCO4)c(=O)c3ccccc32)c(C)c1 | inactive: -6.14%
CCOC(=O)c1c(C)[nH]c(CCC(=O)Nc2c(Cl)cc(OC)cc2OC)c1C | inactive: -1.4%
N#Cc1cccc(Nc2ncnc3c2cnn3-c2cccc(Cl)c2)c1 | inactive: 22.5%
O=C(CSc1nncn2c1cc1occc12)Nc1ccccc1C(F)(F)F | inactive: 1.65%
CCc1ccccc1NC(=O)CN(c1cccc(C)c1C)S(C)(=O)=O | inactive: 8.65%
CCOC(=O)C1CCCN(S(=O)(=O)c2ccc3c(c2)CCN3C(=O)CC)C1 (stereo unspecified) | inactive: -9.23%

Structure (SMILES) | activity change, negative = cytotoxicity
COc1ccc(CNC(=O)Cn2c(=O)nc(-c3ccccc3F)c3cc(Cl)ccc32)cc1OC | inactive: -0.353%
CCCc1nc2nc(C)c(NS(=O)(=O)c3ccc(F)cc3)c(=O)n2[nH]1 | inactive: -1.74%
CCc1ccc(S(=O)(=O)c2cnc3ccc(OC)cc3c2N2CCCC(C)C2)cc1 (stereo unspecified) | inactive: -15.3%
Cc1cc(C(=O)N2CCN(c3ccc(F)cc3)CC2)c2c(C)nn(-c3cccc(Cl)c3C)c2n1 | inactive: 3.91%
O=[N+]([O-])c1ccc(S(=O)(=O)NCc2nc3cccnc3n2Cc2ccccc2Cl)cc1 | inactive: -1.09%
Cc1ccc(C)c(OCCn2cc(C(=O)c3cccs3)c3ccccc32)c1 | inactive: 10.7%
Cc1c(C(=O)OCC2CCCCC2)[nH]c2c1C(=O)CC(c1ccc(F)cc1)C2 (stereo unspecified) | inactive: -0.182%
COC(=O)c1cc(NC(=O)C2CCCN(S(=O)(=O)c3c(C)n[nH]c3C)C2)cc(C(=O)OC)c1 (stereo unspecified) | inactive: 0.434%
COc1ccc(C)cc1NC(=O)Cn1c(=O)nc(-c2ccccc2F)c2cc(Cl)ccc21 | inactive: -8.37%
O=c1nc2c(-c3ccc(F)cc3Cl)n[nH]n2c2ccccc12 | inactive: -4.13%
COCc1cc(C)nc2sc(C(=O)Nc3ccc(OC(F)(F)F)cc3)c(N)c12 | inactive: -20.6%
Cc1cccc(Nc2c(-c3cccs3)nc3nc(C)cc(C)n23)c1 | inactive: -12.9%
CCc1ccc(CNC(=O)c2cc3c(=O)n(CC)c4ccccc4c3s2)cc1 | inactive: 12.6%
O=C(NC(=O)c1ccccc1)Nc1ccc(-n2nc(C(F)(F)F)cc2C(F)(F)F)cc1 | inactive: -0.984%
CC1CCC(NC(=O)c2ccc3c(c2)N(Cc2ccccc2)C(=O)c2ccccc2S3(=O)=O)CC1 (stereo unspecified) | inactive: -1.68%
COc1ccccc1CNC(=O)CCc1c(C)nc2c(c(C)nn2-c2ccc(C)c(C)c2)c1C | inactive: 4.05%
CC(C)(C)OC(=O)N1CCC(c2c(C(=O)NCc3ccccc3)cnn2-c2ccccc2)CC1 | inactive: -2.87%
CCCCn1c(=N)c(S(=O)(=O)c2ccc(Cl)cc2)cc2c(=O)n3cccc(C)c3nc21 | inactive: 20.9%
CCOC(=O)CNc1nc2ccccc2n2c(C)nnc12 | inactive: 1.22%
O=C(c1ccc2c(c1)CCN2S(=O)(=O)c1ccccc1)N1CCN(c2cccc(Cl)c2)CC1 | inactive: -5.64%
CCc1ccc(NC(=O)CSc2nc3c(sc4ccccc43)c(=O)n2CCCOC)cc1 | inactive: 21.3%

Structure (SMILES) | activity change, negative = cytotoxicity
Cc1ccc(CNC(=O)c2cnc(N3CCCCC3)c3ccccc23)cc1 | inactive: 3.11%
COc1ccc(OC)c(NC(=O)Cn2c(=O)n(CC3CCCO3)c(=O)c3cc(OC)c(OC)cc32)c1 (stereo unspecified) | inactive: 16.1%
CCOc1ccccc1CNC(=O)CN1C(=O)CSc2ccc(S(=O)(=O)N3CCOCC3)cc21 | inactive: 13.5%
COc1ccc2cc(-c3nc(Cl)c4c5c(sc4n3)CCCC5)c(=O)oc2c1 | inactive: -2.66%
COc1cccc(CNc2nccn(-c3cc(C)cc(C)c3)c2=O)c1 | inactive: 1.72%
CN(C)c1ccc(-c2nc3cnccn3c2Nc2cccc(C(F)(F)F)c2)cc1 | inactive: -0.0078%
COCCn1c(CCC(=O)Nc2ccc(C)c(Cl)c2)nc2cccnc21 | inactive: -0.467%
Clc1ccc2nc(NCc3ccccc3)c3nncn3c2c1 | inactive: 11.2%
CCSc1ncc(Cl)c(C(=O)Nc2ccc(S(=O)(=O)N3CCC(C)CC3)cc2)n1 | inactive: -15.6%
CCCCN(CCCNC(=O)c1ccc(Sc2ccc(Cl)cc2)c(NC(C)=O)c1)c1ccccc1 | inactive: -23%
Cc1cc2c(cc1S(=O)(=O)CCC(=O)N1CCCC(C)C1)OCC(=O)N2 (stereo unspecified) | inactive: -2.08%
Cc1ccc(-n2ncc(C(=O)NCCN3CCOCC3)c2C2CCN(C(=O)OC(C)(C)C)CC2)c(C)c1 | inactive: -1.8%
Fc1ccccc1-n1ncc2c1ncn1nc(-c3ccccc3Cl)nc21 | inactive: 15.7%
Cc1cccc(CNC(=O)C(=O)Nc2ccccc2C)c1 | inactive: 8.26%
COc1ccccc1CNC(=O)CCC1N=C2c3ccccc3N=C(SCC(N)=O)N2C1=O (stereo unspecified) | inactive: -20.9%
Cc1ccc(CNC(=O)c2ccc(CSCc3ccccc3Cl)o2)cc1 | inactive: -3.13%
CC(=O)c1cccc(NC(=O)C2=CC(c3ccc4c(c3)OCO4)=NS(=O)(=O)N2C)c1 | inactive: 1.34%
Cc1ccc(NC(=O)c2c(NC(=O)Cc3ccccc3)sc3c2CCC3)cc1 | inactive: 5%
Cc1ccc(S(=O)(=O)NCC(c2ccc(N(C)C)cc2)N2CCc3ccccc32)cc1C (stereo unspecified) | inactive: 3.37%
